# About 2,200 (0.71%) of roughly 310,000 compounds showed an effect of 50% or more. The effect is printed as a negative number. The list shows a part of the results.
# Target: human ether-à-go-go-related gene (hERG) potassium channel (human, UniProt Q12809)
# Experiment: primary screen, population patch clamp on CHO cells stably expressing hERG
# Sequence of human ether-à-go-go-related gene (hERG) potassium channel (Q12809 whole entry, looked up): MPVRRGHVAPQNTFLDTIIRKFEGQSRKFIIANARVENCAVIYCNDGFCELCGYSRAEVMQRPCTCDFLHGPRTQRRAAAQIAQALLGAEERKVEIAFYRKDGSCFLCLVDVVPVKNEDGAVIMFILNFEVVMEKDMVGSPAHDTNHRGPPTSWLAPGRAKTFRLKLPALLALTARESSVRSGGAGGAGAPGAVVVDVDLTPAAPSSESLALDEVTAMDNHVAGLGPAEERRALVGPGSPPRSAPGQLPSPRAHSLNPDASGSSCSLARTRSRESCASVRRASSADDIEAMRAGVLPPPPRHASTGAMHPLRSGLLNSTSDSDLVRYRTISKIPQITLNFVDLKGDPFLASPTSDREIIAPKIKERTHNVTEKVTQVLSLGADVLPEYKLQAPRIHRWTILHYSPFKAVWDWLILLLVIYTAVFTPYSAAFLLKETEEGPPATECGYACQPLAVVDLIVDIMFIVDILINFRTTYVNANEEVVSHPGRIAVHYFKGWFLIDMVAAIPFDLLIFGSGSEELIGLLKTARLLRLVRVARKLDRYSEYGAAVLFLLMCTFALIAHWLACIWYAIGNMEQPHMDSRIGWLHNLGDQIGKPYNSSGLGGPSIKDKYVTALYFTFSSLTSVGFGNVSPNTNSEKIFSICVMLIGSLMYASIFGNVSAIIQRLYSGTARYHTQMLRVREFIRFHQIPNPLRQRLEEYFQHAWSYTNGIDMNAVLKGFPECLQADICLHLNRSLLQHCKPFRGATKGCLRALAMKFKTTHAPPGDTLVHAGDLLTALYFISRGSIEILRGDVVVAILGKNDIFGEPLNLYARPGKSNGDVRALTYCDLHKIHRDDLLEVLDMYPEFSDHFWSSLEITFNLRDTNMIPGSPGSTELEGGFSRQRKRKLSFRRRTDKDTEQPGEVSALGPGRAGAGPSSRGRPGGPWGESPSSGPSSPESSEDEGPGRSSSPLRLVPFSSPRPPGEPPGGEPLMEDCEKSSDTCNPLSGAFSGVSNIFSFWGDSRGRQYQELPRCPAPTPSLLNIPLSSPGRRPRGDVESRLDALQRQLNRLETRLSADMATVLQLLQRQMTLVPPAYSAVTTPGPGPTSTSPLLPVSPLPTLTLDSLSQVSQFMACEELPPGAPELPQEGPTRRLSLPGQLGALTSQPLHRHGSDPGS
row,SMILES,"hERG current change (%, negative = inhibition) at 1uM [%]"
1,CCCNC(=O)CN1C(=O)NC2(CCCc3cc(OC)ccc32)C1=O (centres unmarked),-4.9
2,O=C1C2C3C=CC(C3=C3CCCCC3)C2C(=O)N1Cc1ccccc1 (centres unmarked),6.73
3,CCOC(=O)Cc1csc(NC(=O)CSc2nnc(-c3ccc(C)cc3)o2)n1,8.95
4,OCC1(CCOc2ccccc2)CCN(Cc2ccncc2)CC1,-0.954
5,Cc1ccc2nc3c(cc2c1)c(NC(=O)C1CCCO1)nn3CC(C)C (centres unmarked),-11.3
6,COc1ccc(Nc2nnc(-c3ccc(O)cc3)c3ccccc23)cc1,2.63
7,Cc1ccc2c(c1)N(CC(=O)N1CCCCC1c1cccnc1)C(=O)CO2 (centres unmarked),-13.4
8,COC(=O)C(C)Sc1nc2c([nH]c3ccccc32)c(=O)n1C (centres unmarked),2.24
9,COc1cccc2cc(C(=O)N3CCN(c4ccc(C)cc4C)CC3)c(=O)oc12,11.9
10,CC(=O)Nc1ccc(NC(=O)COc2ccc(S(=O)(=O)N3CCCC3)cc2C)cc1,12
11,CC(C)OCCCNC(=O)C(Cc1ccccc1)NS(=O)(=O)c1ccc2c(c1)CCC(=O)N2 (centres unmarked),13.3
12,Nc1nn(-c2ccccc2)nc1C(=O)OCc1ccccc1F,10.3
13,CCCCC(=O)Nc1nc(C)c(-c2csc(Nc3ccccc3OC)n2)s1,-3.5
14,O=C(/C=C/c1c(Cl)nc2ccccn12)N1CCCCC1,8.18
15,COC(=O)c1c(NC(=O)C(=O)N2CCOCC2)sc2c1CCCC2,16
16,COCCNCCOc1ccccc1-c1ccccc1.O=C(O)C(=O)O,1.58
17,O=C(OCc1nc2ccccc2[n+]([O-])c1C(=O)c1ccccc1)c1ccco1,9.63
18,CN(Cc1ccccc1)C(=O)COC(=O)CNS(=O)(=O)c1ccc2ccccc2c1,5.86
19,CCc1nc2sc(C)c(C)c2c(=O)n1CCO,14.1
20,Cn1c(N)c(C(=O)COC(=O)/C=C/c2ccc(Cl)cc2)c(=O)n(C)c1=O,2.92
21,Cc1ccc(NC2=NC(c3ccc(C)cc3)n3c(nc(C)cc3=O)N2)cc1 (centres unmarked),25.6
22,COc1ccc(OCC(=O)NCCc2ccc(S(N)(=O)=O)cc2)cc1,0.271

row,SMILES,"hERG current change (%, negative = inhibition) at 1uM [%]"
1,CCN(CC)C(=O)/C(=C\c1cccc([N+](=O)[O-])c1)NC(=O)c1ccco1,2.17
2,C/C=C/Cn1c(N2CCCCCC2)nc2c1c(=O)[nH]c(=O)n2C,5.19
3,Cn1nnnc1SCC(=O)Nc1cc(C(C)(C)C)nn1-c1ccccc1,-3.42
4,COc1ccc(-c2cnnn2-c2ccc(NC(=O)c3ccc(S(=O)(=O)N4CCCCC4)cc3)cc2)cc1OC,4.41
5,COc1ccc(OC)c(S(=O)(=O)N/N=C\c2c[nH]c3ccccc23)c1,12.5
6,COCc1nnc(NC(=O)c2ccccc2[N+](=O)[O-])s1,15
7,O=C(COc1ccc(C(=O)c2ccccc2)cc1)Nc1cccnc1,43.8
8,C=CCn1c(SCC(=O)Nc2nnc(CC)s2)nnc1-c1cccnc1,19.9
9,CC(=O)N1CCc2c(sc(NC(=O)CCS(=O)(=O)c3ccccc3)c2C#N)C1,12.4
10,CC(=O)c1sc(-c2ccc(F)cc2F)nc1C,13.3
11,CC(C)(C)CN1C(N)=NC[C@@H]1Cc1ccccc1,7.31
12,CCOc1ccccc1C(=O)Nc1cc(C(=O)NCCc2ccccc2)ccc1Cl,11.9
13,CSc1nc2nccc(-c3ccc4c(c3)OCO4)n2n1,15.6
14,COC(=O)c1cc(C#N)c(N2CCOCC2)nc1C,10
15,COCCn1c(C)cc(C(=O)COC(=O)CCN2C(=O)c3ccccc3C2=O)c1C,8.17
16,CC(=O)Nc1ccccc1C(=O)C(=O)Nc1ccc(C)c(F)c1,14.8
17,NS(=O)(=O)c1ccc(NC(=O)COC(=O)/C=C/c2ccc([N+](=O)[O-])cc2)cc1,11.7
18,CCC(C)(C)n1nnnc1CN1CCN(c2nc3ccc(C)cc3cc2C#N)CC1,1.23
19,CCCCN1CCN=C1N(C)C,8.24
20,CCOC(=O)CCCNC(=O)CCNC(=O)c1ccc(OCC)cc1,4.22
21,O=C(NCc1ccccc1Cl)C1CCCN1S(=O)(=O)c1ccc(F)cc1 (centres unmarked),9.99
22,Cc1ccc(C(=O)OCC(=O)NC(C)C)cc1S(=O)(=O)N1CCOCC1,12.1

# Source: publication PMC4336329 (PLoS ONE, 2015)
